# Laboratory results as given in article PMC12820563.
# Some of the results follow. The list includes weakly bound sequences.
# Target: T1, MBP-FoxP3dN (UniProt Q99JB6)
# T1 sequence: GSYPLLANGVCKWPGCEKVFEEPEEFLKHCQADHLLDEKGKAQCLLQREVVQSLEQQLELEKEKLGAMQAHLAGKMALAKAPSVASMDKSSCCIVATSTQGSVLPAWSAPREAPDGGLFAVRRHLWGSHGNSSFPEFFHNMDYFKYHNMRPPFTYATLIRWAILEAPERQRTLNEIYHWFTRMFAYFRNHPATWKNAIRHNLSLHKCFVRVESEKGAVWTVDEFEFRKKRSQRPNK
# Test: PD-seq (MBP pull-down with sequencing)
# Details: 20 mM Tris-HCl pH 7.5, 100 mM NaCl, 1.5 mM MgCl2, 0.4 uM protein, 0.1 uM dsDNA library, 30 min, room temperature, amylose pull-down; high values mean tight binding; double strand, one strand shown
row,Sequence,binding signal (RPM ratio (pull-down/input))
1,GATGATTGTTCTCCCAGCTGATGAATTGTGTAACTCGAGTAAACAAATTTTCCTAATCTTTCTGTTCAAGCGCCATCTAC,3.78
2,GATGATTGTTCTCCCAGCTGATGAATTACACATTTCGAGTAAACAAATTTTCCTAATCTTTCTGTTCAAGCGCCATCTAC,0.832
3,GATGATTGTTCTCCCAGCTGATGAATTTACTAGTTCGAGTAAACAAATTTTCCTAATCTTTCTGTTCAAGCGCCATCTAC,1.09
4,GATGATTGTTCTCCCAGCTGATGAATTAGCTTCGTCGAGTAAACAAATTTTCCTAATCTTTCTGTTCAAGCGCCATCTAC,0.56
5,GATGATTGTTCTCCCAGCTGATGAATTAAACCCTTCGAGTAAACAAATTTTCCTAATCTTTCTGTTCAAGCGCCATCTAC,0.267
6,GATGATTGTTCTCCCAGCTGATGAATTTCGAACGTCGAGTAAACAAATTTTCCTAATCTTTCTGTTCAAGCGCCATCTAC,0.337
7,GATGATTGTTCTCCCAGCTGATGAATTACGTGGCTCGAGTAAACAAATTTTCCTAATCTTTCTGTTCAAGCGCCATCTAC,0.68
8,GATGATTGTTCTCCCAGCTGATGAATTCAGTGCGTCGAGTAAACAAATTTTCCTAATCTTTCTGTTCAAGCGCCATCTAC,0.868
9,GATGATTGTTCTCCCAGCTGATGAATTTACGAAATCGAGTAAACAAATTTTCCTAATCTTTCTGTTCAAGCGCCATCTAC,0.491
10,GATGATTGTTCTCCCAGCTGATGAATTCCTGACTTCGAGTAAACAAATTTTCCTAATCTTTCTGTTCAAGCGCCATCTAC,0.34
11,GATGATTGTTCTCCCAGCTGATGAATTTACCTGCTCGAGTAAACAAATTTTCCTAATCTTTCTGTTCAAGCGCCATCTAC,0.4
12,GATGATTGTTCTCCCAGCTGATGAATTGCTGTTATCGAGTAAACAAATTTTCCTAATCTTTCTGTTCAAGCGCCATCTAC,2.06
13,GATGATTGTTCTCCCAGCTGATGAATTGGTGAAATCGAGTAAACAAATTTTCCTAATCTTTCTGTTCAAGCGCCATCTAC,0.383
14,GATGATTGTTCTCCCAGCTGATGAATTCATTCCTTCGAGTAAACAAATTTTCCTAATCTTTCTGTTCAAGCGCCATCTAC,0.287
15,GATGATTGTTCTCCCAGCTGATGAATTGCCAAACTCGAGTAAACAAATTTTCCTAATCTTTCTGTTCAAGCGCCATCTAC,0.549
16,GATGATTGTTCTCCCAGCTGATGAATTATGCGACTCGAGTAAACAAATTTTCCTAATCTTTCTGTTCAAGCGCCATCTAC,3.1
17,GATGATTGTTCTCCCAGCTGATGAATTAATTCGGTCGAGTAAACAAATTTTCCTAATCTTTCTGTTCAAGCGCCATCTAC,0.288
18,GATGATTGTTCTCCCAGCTGATGAATTCTTCAACTCGAGTAAACAAATTTTCCTAATCTTTCTGTTCAAGCGCCATCTAC,0.219
19,GATGATTGTTCTCCCAGCTGATGAATTTGTTGCGTCGAGTAAACAAATTTTCCTAATCTTTCTGTTCAAGCGCCATCTAC,6.75
20,GATGATTGTTCTCCCAGCTGATGAATTATAACAATCGAGTAAACAAATTTTCCTAATCTTTCTGTTCAAGCGCCATCTAC,0.946

row,Sequence,binding signal (RPM ratio (pull-down/input))
1,GATGATTGTTCTCCCAGCTGATGAATTAGGGCTGTCGAGTAAACAAATTTTCCTAATCTTTCTGTTCAAGCGCCATCTAC,0.403
2,GATGATTGTTCTCCCAGCTGATGAATTGTTTCGCTCGAGTAAACAAATTTTCCTAATCTTTCTGTTCAAGCGCCATCTAC,0.868
3,GATGATTGTTCTCCCAGCTGATGAATTGGGTGAGTCGAGTAAACAAATTTTCCTAATCTTTCTGTTCAAGCGCCATCTAC,0.443
4,GATGATTGTTCTCCCAGCTGATGAATTAACGATTTCGAGTAAACAAATTTTCCTAATCTTTCTGTTCAAGCGCCATCTAC,0.369
5,GATGATTGTTCTCCCAGCTGATGAATTGCTCAGCTCGAGTAAACAAATTTTCCTAATCTTTCTGTTCAAGCGCCATCTAC,0.355
6,GATGATTGTTCTCCCAGCTGATGAATTAGGTTGATCGAGTAAACAAATTTTCCTAATCTTTCTGTTCAAGCGCCATCTAC,1.42
7,GATGATTGTTCTCCCAGCTGATGAATTTTAATAATCGAGTAAACAAATTTTCCTAATCTTTCTGTTCAAGCGCCATCTAC,0.415
8,GATGATTGTTCTCCCAGCTGATGAATTTCTTACTTCGAGTAAACAAATTTTCCTAATCTTTCTGTTCAAGCGCCATCTAC,0.283
9,GATGATTGTTCTCCCAGCTGATGAATTCTAGGGGTCGAGTAAACAAATTTTCCTAATCTTTCTGTTCAAGCGCCATCTAC,0.306
10,GATGATTGTTCTCCCAGCTGATGAATTTCCTAACTCGAGTAAACAAATTTTCCTAATCTTTCTGTTCAAGCGCCATCTAC,0.254
11,GATGATTGTTCTCCCAGCTGATGAATTTGACCATTCGAGTAAACAAATTTTCCTAATCTTTCTGTTCAAGCGCCATCTAC,0.421
12,GATGATTGTTCTCCCAGCTGATGAATTCTCGCTTTCGAGTAAACAAATTTTCCTAATCTTTCTGTTCAAGCGCCATCTAC,0.821
13,GATGATTGTTCTCCCAGCTGATGAATTATGGGACTCGAGTAAACAAATTTTCCTAATCTTTCTGTTCAAGCGCCATCTAC,0.434
14,GATGATTGTTCTCCCAGCTGATGAATTCACGTCTTCGAGTAAACAAATTTTCCTAATCTTTCTGTTCAAGCGCCATCTAC,0.44
15,GATGATTGTTCTCCCAGCTGATGAATTCATCGACTCGAGTAAACAAATTTTCCTAATCTTTCTGTTCAAGCGCCATCTAC,0.344
16,GATGATTGTTCTCCCAGCTGATGAATTTTTTCTTTCGAGTAAACAAATTTTCCTAATCTTTCTGTTCAAGCGCCATCTAC,0.184
17,GATGATTGTTCTCCCAGCTGATGAATTTGCTCCGTCGAGTAAACAAATTTTCCTAATCTTTCTGTTCAAGCGCCATCTAC,0.386
18,GATGATTGTTCTCCCAGCTGATGAATTGTTAAGGTCGAGTAAACAAATTTTCCTAATCTTTCTGTTCAAGCGCCATCTAC,0.393
19,GATGATTGTTCTCCCAGCTGATGAATTGAATACCTCGAGTAAACAAATTTTCCTAATCTTTCTGTTCAAGCGCCATCTAC,0.446
20,GATGATTGTTCTCCCAGCTGATGAATTGTTAAGTTCGAGTAAACAAATTTTCCTAATCTTTCTGTTCAAGCGCCATCTAC,0.441
